Data taken from the supplement of paper PMC12217912.
This is one part of the list. Sequences were assembled here from the parent chain. Inactive controls read about 0.05.

B1: TEV protease; numbered along this chain (parent)
chain: MGESLFKGPRDYNPISSSICHLTNESDGHTTSLYGIGFGPFIITNKHLFRRNNGTLVVQSLHGVFKVKDTTTLQQHLVDGRDMIIIRMPKDFPPFPQKLKFREPQREERICLVTTNFQTKSMSSMVSDTSCTFPSGDGIFWKHWIQTKDGQCGSPLVSTRDGFIVGIHSASNFTNTNNYFTSVPKNFMELLTNQEAQQWVSGWRLNADSVLWGGHKVFMVKPEEPFQPVKEATQL

Variants of: B1
Experiment: raw area under fraction-flipped curve 0-4 h after induction (AUC4h, not background-subtracted), DNA-recorder readout of cleavage of the substrate (dimensionless); higher = more cleavage of the substrate by the protease variant
Conditions: temperature: 34 °C; time window: 0-4 h after rhamnose induction
Description: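 In vivo DNA recorder in E. coli TOP10(DE3) ΔrhaA at 34 °C. Each TEVp single-site mutant (parent TEVp 0) is paired with a single-site variant of the 7-mer TEVs (canonical ENLYFQ|S). The substrate sits between flexible linkers in a Bxb1-sfGFP-TEVs-SsrA fusion, so cleavage stabilises Bxb1 and speeds flipping of a recombination array, read by NGS. The value is the raw area under the fraction-flipped curve over 0-4 h after rhamnose induction (AUC4h), with ≥20 reads per time point. It is not background-subtracted; inactive controls average about 0.047.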
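Note: Bxb1 expression induced with 0.2% (w/v) L-rhamnose at OD600 near 0.5, cultures sampled hourly, flipped fraction per protease–substrate barcode pair counted by paired-end Illumina sequencing.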

Variant	area with substrate ENAYFQS	area with substrate ENDYFQS	area with substrate ENEYFQS	area with substrate ENFYFQS	area with substrate ENGYFQS	area with substrate ENHYFQS	area with substrate ENKYFQS	area with substrate ENMYFQS	area with substrate ENPYFQS	area with substrate ENQYFQS	area with substrate ENSYFQS	area with substrate ENTYFQS	area with substrate ENVYFQS	area with substrate ENYYFQS	area with substrate ENCYFQS	area with substrate ENRYFQS	area with substrate ENWYFQS	area with substrate ENIYFQS	area with substrate ENNYFQS
MGESLFKGPRDYNPISSSICSLTNESDGHTTSLYGIGFGPFIITNKHLFRRNNGTLVVQSLHGVFKVKDTTTLQQHLVDGRDMIIIRMPKDFPPFPQKLKFREPQREERICLVTTNFQTKSMSSMVSDTSCTFPSGDGIFWKHWIQTKDGQCGSPLVSTRDGFIVGIHSASNFTNTNNYFTSVPKNFMELLTNQEAQQWVSGWRLNADSVLWGGHKVFMVKPEEPFQPVKEATQL [H21S]	0.0585	0.0735	0.0625	0.0575	0.0577	0.0564	0.064	0.078	0.0629	0.0539	0.0628	0.0412	0.0927	0.0574					
MGESLFKGPRDYNPISSSIAHLTNESDGHTTSLYGIGFGPFIITNKHLFRRNNGTLVVQSLHGVFKVKDTTTLQQHLVDGRDMIIIRMPKDFPPFPQKLKFREPQREERICLVTTNFQTKSMSSMVSDTSCTFPSGDGIFWKHWIQTKDGQCGSPLVSTRDGFIVGIHSASNFTNTNNYFTSVPKNFMELLTNQEAQQWVSGWRLNADSVLWGGHKVFMVKPEEPFQPVKEATQL [C20A]	0.046	0.0573	0.0729	0.0637	0.0682		0.0381	0.0706	0.0555	0.0602	0.0738		0.0707	0.0672	0.0697	0.0564	0.032		
MGESLFKGPRDYNPISSSIEHLTNESDGHTTSLYGIGFGPFIITNKHLFRRNNGTLVVQSLHGVFKVKDTTTLQQHLVDGRDMIIIRMPKDFPPFPQKLKFREPQREERICLVTTNFQTKSMSSMVSDTSCTFPSGDGIFWKHWIQTKDGQCGSPLVSTRDGFIVGIHSASNFTNTNNYFTSVPKNFMELLTNQEAQQWVSGWRLNADSVLWGGHKVFMVKPEEPFQPVKEATQL [C20E]	0.0531	0.045	0.055	0.039			0.0237			0.042	0.0483	0.0305			0.0458	0.0622	0.0052	0.0428	0.0422
MGESLFKGPRDYNPISSSICHATNESDGHTTSLYGIGFGPFIITNKHLFRRNNGTLVVQSLHGVFKVKDTTTLQQHLVDGRDMIIIRMPKDFPPFPQKLKFREPQREERICLVTTNFQTKSMSSMVSDTSCTFPSGDGIFWKHWIQTKDGQCGSPLVSTRDGFIVGIHSASNFTNTNNYFTSVPKNFMELLTNQEAQQWVSGWRLNADSVLWGGHKVFMVKPEEPFQPVKEATQL [L22A]	0.0546	0.0666	0.0412	0.0513	0.0691	0.0526	0.0632	0.0631	0.0561	0.0525	0.0588	0.0646	0.0532		0.0547	0.0642	0.0091	0.0734	0.0544
MGESLFKGPRDYNPISSSICHLMNESDGHTTSLYGIGFGPFIITNKHLFRRNNGTLVVQSLHGVFKVKDTTTLQQHLVDGRDMIIIRMPKDFPPFPQKLKFREPQREERICLVTTNFQTKSMSSMVSDTSCTFPSGDGIFWKHWIQTKDGQCGSPLVSTRDGFIVGIHSASNFTNTNNYFTSVPKNFMELLTNQEAQQWVSGWRLNADSVLWGGHKVFMVKPEEPFQPVKEATQL [T23M]	0.0618	0.0601	0.0656	0.0534	0.0558	0.0602	0.0639		0.0578	0.0661	0.0666	0.0672	0.0709	0.0601	0.0653	0.0633	0.0798	0.102	0.0454
MGESLFKGPRDYNPISSSICHLTNESDHHTTSLYGIGFGPFIITNKHLFRRNNGTLVVQSLHGVFKVKDTTTLQQHLVDGRDMIIIRMPKDFPPFPQKLKFREPQREERICLVTTNFQTKSMSSMVSDTSCTFPSGDGIFWKHWIQTKDGQCGSPLVSTRDGFIVGIHSASNFTNTNNYFTSVPKNFMELLTNQEAQQWVSGWRLNADSVLWGGHKVFMVKPEEPFQPVKEATQL [G28H]	0.0497	0.063	0.06	0.0785			0.0585	0.0749		0.0603			0.0663		0.0754	0.0606		0.11	
MGESLFKGPRDYNPISSSICHLTNESDSHTTSLYGIGFGPFIITNKHLFRRNNGTLVVQSLHGVFKVKDTTTLQQHLVDGRDMIIIRMPKDFPPFPQKLKFREPQREERICLVTTNFQTKSMSSMVSDTSCTFPSGDGIFWKHWIQTKDGQCGSPLVSTRDGFIVGIHSASNFTNTNNYFTSVPKNFMELLTNQEAQQWVSGWRLNADSVLWGGHKVFMVKPEEPFQPVKEATQL [G28S]	0.0683	0.0619	0.0574	0.044	0.0637	0.0586	0.0468	0.0699	0.0539	0.0605	0.0398	0.065	0.0663	0.0786	0.0644	0.0556	0.0073	0.0883	
MGESLFKGPRDYNPISSSICHLTNESDMHTTSLYGIGFGPFIITNKHLFRRNNGTLVVQSLHGVFKVKDTTTLQQHLVDGRDMIIIRMPKDFPPFPQKLKFREPQREERICLVTTNFQTKSMSSMVSDTSCTFPSGDGIFWKHWIQTKDGQCGSPLVSTRDGFIVGIHSASNFTNTNNYFTSVPKNFMELLTNQEAQQWVSGWRLNADSVLWGGHKVFMVKPEEPFQPVKEATQL [G28M]	0.0478	0.0608	0.0648	0.0588	0.056			0.0705		0.0442	0.0547		0.0554			0.0528			0.0586
MGESLFKGPRKYNPISSSICHLTNESDGHTTSLYGIGFGPFIITNKHLFRRNNGTLVVQSLHGVFKVKDTTTLQQHLVDGRDMIIIRMPKDFPPFPQKLKFREPQREERICLVTTNFQTKSMSSMVSDTSCTFPSGDGIFWKHWIQTKDGQCGSPLVSTRDGFIVGIHSASNFTNTNNYFTSVPKNFMELLTNQEAQQWVSGWRLNADSVLWGGHKVFMVKPEEPFQPVKEATQL [D11K]	0.0655	0.0635	0.0532	0.0448			0.0635			0.0596		0.0676	0.067	0.039	0.0707	0.0627			0.0611
MGESLFKGPRDYNPISSSICHLTKESDGHTTSLYGIGFGPFIITNKHLFRRNNGTLVVQSLHGVFKVKDTTTLQQHLVDGRDMIIIRMPKDFPPFPQKLKFREPQREERICLVTTNFQTKSMSSMVSDTSCTFPSGDGIFWKHWIQTKDGQCGSPLVSTRDGFIVGIHSASNFTNTNNYFTSVPKNFMELLTNQEAQQWVSGWRLNADSVLWGGHKVFMVKPEEPFQPVKEATQL [N24K]	0.069	0.0618	0.0633	0.0652	0.0607	0.0729	0.0689	0.0652		0.0638	0.0564	0.0664	0.0613	0.0882	0.0764	0.0438			0.061
MGESLFKGPRDYNPISSSQCHLTNESDGHTTSLYGIGFGPFIITNKHLFRRNNGTLVVQSLHGVFKVKDTTTLQQHLVDGRDMIIIRMPKDFPPFPQKLKFREPQREERICLVTTNFQTKSMSSMVSDTSCTFPSGDGIFWKHWIQTKDGQCGSPLVSTRDGFIVGIHSASNFTNTNNYFTSVPKNFMELLTNQEAQQWVSGWRLNADSVLWGGHKVFMVKPEEPFQPVKEATQL [I19Q]	0.0586	0.0487	0.0724	0.0624	0.0619	0.0519		0.088	0.0569	0.051	0.0594		0.0654		0.0582	0.0545	0.0043	0.0644	0.0559
MGESLFKGPRDPNPISSSICHLTNESDGHTTSLYGIGFGPFIITNKHLFRRNNGTLVVQSLHGVFKVKDTTTLQQHLVDGRDMIIIRMPKDFPPFPQKLKFREPQREERICLVTTNFQTKSMSSMVSDTSCTFPSGDGIFWKHWIQTKDGQCGSPLVSTRDGFIVGIHSASNFTNTNNYFTSVPKNFMELLTNQEAQQWVSGWRLNADSVLWGGHKVFMVKPEEPFQPVKEATQL [Y12P]	0.0639	0.0717	0.0727	0.0542	0.0649		0.0658	0.0796	0.0639	0.0575	0.129	0.0617	0.0955	0.0447	0.0631	0.0495	0.0403		0.0662
MGESLFKGPRDYNPISSSICHLTNESVGHTTSLYGIGFGPFIITNKHLFRRNNGTLVVQSLHGVFKVKDTTTLQQHLVDGRDMIIIRMPKDFPPFPQKLKFREPQREERICLVTTNFQTKSMSSMVSDTSCTFPSGDGIFWKHWIQTKDGQCGSPLVSTRDGFIVGIHSASNFTNTNNYFTSVPKNFMELLTNQEAQQWVSGWRLNADSVLWGGHKVFMVKPEEPFQPVKEATQL [D27V]	0.192	0.0597	0.0525	0.0536	0.0608	0.0743	0.0489	0.046		0.0541	0.0566	0.0602	0.0615	0.059	0.0578	0.0558	0.0299	0.0796	0.0668
MGESLFKGPRDYNPISSSICHLTNEVDGHTTSLYGIGFGPFIITNKHLFRRNNGTLVVQSLHGVFKVKDTTTLQQHLVDGRDMIIIRMPKDFPPFPQKLKFREPQREERICLVTTNFQTKSMSSMVSDTSCTFPSGDGIFWKHWIQTKDGQCGSPLVSTRDGFIVGIHSASNFTNTNNYFTSVPKNFMELLTNQEAQQWVSGWRLNADSVLWGGHKVFMVKPEEPFQPVKEATQL [S26V]	0.0589	0.0632	0.0643	0.0715				0.069	0.0737	0.0554	0.0589		0.0684			0.0382			0.0621
MGESLFKGPRDYNPISSPICHLTNESDGHTTSLYGIGFGPFIITNKHLFRRNNGTLVVQSLHGVFKVKDTTTLQQHLVDGRDMIIIRMPKDFPPFPQKLKFREPQREERICLVTTNFQTKSMSSMVSDTSCTFPSGDGIFWKHWIQTKDGQCGSPLVSTRDGFIVGIHSASNFTNTNNYFTSVPKNFMELLTNQEAQQWVSGWRLNADSVLWGGHKVFMVKPEEPFQPVKEATQL [S18P]	0.0424		0.0561		0.0542	0.0454	0.066		0.0454	0.0642	0.06	0.0483	0.0725	0.0488	0.0528	0.0543			0.0548
MGESLFKGPRDYNPISSFICHLTNESDGHTTSLYGIGFGPFIITNKHLFRRNNGTLVVQSLHGVFKVKDTTTLQQHLVDGRDMIIIRMPKDFPPFPQKLKFREPQREERICLVTTNFQTKSMSSMVSDTSCTFPSGDGIFWKHWIQTKDGQCGSPLVSTRDGFIVGIHSASNFTNTNNYFTSVPKNFMELLTNQEAQQWVSGWRLNADSVLWGGHKVFMVKPEEPFQPVKEATQL [S18F]	0.0608	0.05	0.0541	0.0719	0.0722	0.0609			0.0828	0.056	0.0583	0.0689	0.0662		0.0638	0.0673	0	0.122	0.0529
MGESLFKGPRDYNPISSVICHLTNESDGHTTSLYGIGFGPFIITNKHLFRRNNGTLVVQSLHGVFKVKDTTTLQQHLVDGRDMIIIRMPKDFPPFPQKLKFREPQREERICLVTTNFQTKSMSSMVSDTSCTFPSGDGIFWKHWIQTKDGQCGSPLVSTRDGFIVGIHSASNFTNTNNYFTSVPKNFMELLTNQEAQQWVSGWRLNADSVLWGGHKVFMVKPEEPFQPVKEATQL [S18V]	0.0659	0.0606	0.057	0.0452	0.0584	0.0681				0.0572	0.0734	0.0747	0.077	0.045	0.0695	0.0481		0.115	0.0505
